Results published in paper PMC4336329 (PLoS ONE, 2015).
Among all 310,000 compounds or so, about 2,200 (0.71%) showed an effect of 50% or more. Effects have a minus sign here. The list shows a part of the results.

Target: human ether-à-go-go-related gene (hERG) potassium channel (human, UniProt Q12809)
Test: primary screen, population patch clamp on CHO cells stably expressing hERG

Chain of human ether-à-go-go-related gene (hERG) potassium channel (Q12809 whole entry, looked up): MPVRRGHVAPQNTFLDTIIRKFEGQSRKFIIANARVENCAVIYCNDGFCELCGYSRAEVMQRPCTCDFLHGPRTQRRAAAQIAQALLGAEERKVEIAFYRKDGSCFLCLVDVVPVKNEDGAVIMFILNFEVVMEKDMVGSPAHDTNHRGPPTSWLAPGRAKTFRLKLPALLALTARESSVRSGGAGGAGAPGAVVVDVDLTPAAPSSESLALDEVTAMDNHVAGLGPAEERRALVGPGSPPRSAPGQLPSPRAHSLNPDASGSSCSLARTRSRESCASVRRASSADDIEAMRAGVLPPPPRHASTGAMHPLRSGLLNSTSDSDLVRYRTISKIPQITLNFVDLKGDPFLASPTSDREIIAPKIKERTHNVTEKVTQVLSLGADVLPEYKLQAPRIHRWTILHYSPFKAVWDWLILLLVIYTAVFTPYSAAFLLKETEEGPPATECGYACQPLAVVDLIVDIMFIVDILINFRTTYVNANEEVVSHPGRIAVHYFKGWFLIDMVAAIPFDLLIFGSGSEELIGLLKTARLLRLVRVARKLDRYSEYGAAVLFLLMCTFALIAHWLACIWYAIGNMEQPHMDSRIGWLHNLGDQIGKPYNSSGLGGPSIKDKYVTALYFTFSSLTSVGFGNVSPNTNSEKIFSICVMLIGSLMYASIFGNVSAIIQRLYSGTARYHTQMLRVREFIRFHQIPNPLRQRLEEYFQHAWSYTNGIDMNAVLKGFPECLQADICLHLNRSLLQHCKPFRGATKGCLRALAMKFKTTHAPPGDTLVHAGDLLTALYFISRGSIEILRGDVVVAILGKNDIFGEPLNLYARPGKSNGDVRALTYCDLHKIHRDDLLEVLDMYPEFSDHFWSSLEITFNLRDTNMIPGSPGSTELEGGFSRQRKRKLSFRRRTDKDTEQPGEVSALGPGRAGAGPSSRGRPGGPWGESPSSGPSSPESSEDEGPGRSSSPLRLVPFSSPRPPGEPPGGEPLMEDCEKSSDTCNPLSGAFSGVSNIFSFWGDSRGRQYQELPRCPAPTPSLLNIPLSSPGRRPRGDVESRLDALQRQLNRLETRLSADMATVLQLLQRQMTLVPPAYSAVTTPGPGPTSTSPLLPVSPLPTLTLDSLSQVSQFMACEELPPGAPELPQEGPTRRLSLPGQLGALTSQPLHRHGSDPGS

Row | SMILES | hERG current change (%, negative = inhibition) at 1uM
1 | CCSc1ccccc1C(=O)NC1CCCCC1 | 19.4%
2 | O=C(NCc1cccnc1)c1ccc([N+](=O)[O-])cc1 | 6.28%
3 | CC(C)Oc1ccc(C2CC(=O)N(c3ccc(N(C)C)cc3)C2=O)cc1 (centres unmarked) | 13.7%
4 | CC(c1ccccc1)n1cncc1C(=O)N1CCCC1=O.Cl (centres unmarked) | 4.79%
5 | CC(=O)c1cccc(NC(=O)COC(=O)COc2ccccc2C)c1 | 8%
6 | Cc1ccc(/C=C2\C(=O)NC(=S)N(c3ccc(F)cc3)C2=O)o1 | 17.4%
7 | Cc1ccc(N(c2ncnc(N)c2[N+](=O)[O-])C2CCCCC2)cc1 | -2.25%
8 | CC1CCN(S(=O)(=O)c2ccc(N=NC3=C(O)CC(C)(C)CC3=O)cc2)CC1 | 10.1%
9 | CN1CCN(c2cc(N3CCCCCC3)c(F)cc2[N+](=O)[O-])CC1 | 5.78%
10 | O=C(c1ccccn1)N1CCN(c2ccc(C(F)(F)F)cn2)CC1 | -2.86%
11 | Cc1cc(NC(=O)CCC(=O)NNC(=O)c2ccc(C(C)(C)C)cc2)no1 | 6.49%
12 | Cc1cc(C)c(OC2(c3ccccc3)OC(=O)c3ccccc32)c(C)c1 (centres unmarked) | -0.648%
13 | CCOC(=O)CN1C(=O)CSc2ccccc21 | 12.1%
14 | C=CCN1N=C(/C=C/c2ccc(C)cc2)CCC1=O | 12.9%
15 | COc1ccc(F)cc1S(=O)(=O)NCCCn1ccnc1 | 20.5%
16 | O=C(O)c1ccc(CN2C(=O)c3ccc(Oc4ccc([N+](=O)[O-])cc4)cc3C2=O)cc1 | 8.25%
17 | C=CCNC(=O)C1CC(=O)N(c2ccc(OCC(=O)Nc3ccc(Cl)cc3)cc2)C1 (centres unmarked) | 9.58%
18 | CCN(CC)C(=O)Nc1cnc2ccccc2c1 | 12.6%
19 | CCOc1ccc(Cl)cc1S(=O)(=O)N1CCC(C(=O)NCc2ccncc2)CC1 | 12.1%
20 | COc1ccc(C2=NOC(C(=O)O)C2)cc1 (centres unmarked) | 3.26%
21 | COc1ccccc1C(=O)NC(=S)N1CCc2ccccc21 | 30.8%
22 | O=C(CCn1c(=S)[nH]c2cc3c(cc2c1=O)OCO3)N1CCc2ccccc2C1 | 1.55%
23 | O=S(=O)(NCCc1ccccc1)c1cccc(S(=O)(=O)N2CCOCC2)c1 | 4.96%

Row | SMILES | hERG current change (%, negative = inhibition) at 1uM
24 | CCOC(=O)c1ccc(NC(=O)CN2C(=O)CSC2=O)cc1 | -7.9%
25 | COc1ccc(C2C(C(=O)N3CCN(C)CC3)c3cc(OC)c(OC)cc3C(=O)N2C)cc1 (centres unmarked) | -2.46%
26 | Cl.O=C(CCN1CCc2ccccc2C1)c1ccc2c(c1)OCCO2 | -13.3%
27 | NC(=O)c1ccccc1NC(=O)COC(=O)C1(c2ccccc2)CC1 | 8.91%
28 | COc1ccc(C2c3cc(OC)c(OC)cc3CCN2C(=O)c2ccccc2)cc1OC (centres unmarked) | 15.7%
29 | CCOC(=O)CSc1nc2cc(C(=O)NCc3ccco3)ccc2c(=O)n1-c1ccc(F)cc1 | 1.34%
30 | Cc1cccc(N(CC(=O)NC2CCCCC2)C(=O)c2c(C)noc2C)c1 | 16.8%
31 | Cc1oc(-c2ccc(Cl)cc2)nc1CS(=O)CC(=O)NC1CCCC1 (centres unmarked) | 10.6%
32 | COc1cc2cc(C(=O)N/N=C/c3cccc(OC)c3OC)[nH]c2cc1OC | 6.39%
33 | CC1CCCC(C)N1CCCNC(=O)c1ccc2nc(N3CCCCC3)sc2c1 (centres unmarked) | -6.55%
34 | O=C(NCC(=O)N(Cc1cccs1)C(C(=O)NC1CCCCC1)c1ccco1)c1cccs1 (centres unmarked) | 8.28%
35 | COc1ccc(-n2nc(C(=O)NCC(=O)N3CCN(c4ccccc4F)CC3)c3ccccc3c2=O)cc1OC | -1.44%
36 | Cc1nc2ccccc2c(=O)n1/N=C/c1cc(Br)cc(Br)c1O | 11.6%
37 | CCN(CC)CCCNC(=S)N1CCC(c2nc3ccccc3[nH]2)CC1 | 10.7%
38 | O=C1C2CCCN2C(c2ccccc2)N1c1ccc(F)cc1 (centres unmarked) | 7.34%
39 | Nc1cc(Cl)ccc1C(=O)OCC(=O)N1CCOCC1 | 17.5%
40 | CCC(=O)N(Cc1ccco1)C1CC(=O)N(c2ccccc2)C1=O (centres unmarked) | -34.3%
41 | NC(=O)c1ccc(SCC(=O)OCC(=O)N2CCCC2=O)c([N+](=O)[O-])c1 | -3.22%
42 | O=C(/C=C/c1ccccc1)NCCc1ccc2c(c1)OCCO2 | -3.68%
43 | Cc1cc(C)c2c(n1)nn1c(NCCCN(C)C)cc(C)nc21 | -0.862%
44 | O=C(Cc1cccs1)Nc1ccc(-c2nnn(CC(=O)N3CCOCC3)n2)cc1 | 11.7%
45 | CC1CCCN(C(=O)CSc2nnc(-c3ccco3)n2C)C1 (centres unmarked) | 11.3%
46 | CCOc1ccc(C(=O)NCC(=O)NCC(c2ccco2)N2CCCCC2)cc1 (centres unmarked) | 5.61%

Row | SMILES | hERG current change (%, negative = inhibition) at 1uM
47 | O=c1[nH]c2ccccc2[n+]([O-])c1-c1ccccc1 | 12.2%
48 | COc1ccc(OC)c(NC(=O)C2CCN(Cc3cnn(-c4ccccc4)c3-n3cccc3)CC2)c1 | 5.58%
49 | O=C(NCCc1ccccc1)C1CCN(C(=O)c2sccc2-n2cccc2)CC1 | 8%
50 | O=[N+]([O-])c1cccc(S(=O)(=O)Nc2cccc(-c3ccc(N4CCOCC4)nn3)c2)c1 | 4.35%
51 | COC(=O)C1CCN(C(=O)COC(=O)c2oc3ccccc3c2C)CC1 | 4.08%
52 | CC(C)N(C(=S)NCc1ccccc1)C(C)C | 8.61%
53 | O=C(Nc1cccc(-c2nn[nH]n2)c1)c1ccc(Br)s1 | 8.98%
54 | Cc1cccc(-n2c(SCc3cc(=O)n4ccsc4n3)nc3ccccc32)c1 | 4.45%
55 | COc1ccc(CC(=O)Nc2nc(-c3ccc(F)c(F)c3)cs2)cc1 | 7.95%
56 | Cn1c(CNC(=O)CNC(=O)c2ccc(C(C)(C)C)cc2)cc(=O)n(C)c1=O | 9.45%
57 | COc1ccc(S(=O)(=O)N2CCOC23CCN(C(=O)c2c(F)cccc2Cl)CC3)cc1 | 10.8%
58 | CCC1=NN(C(=O)c2ccccc2O)C(O)(c2ccccc2)C1 (centres unmarked) | 8.3%
59 | COCCSc1nnc(NC(=O)C2CC(=O)N(c3ccc(C)cc3)C2)s1 (centres unmarked) | 9.23%
60 | CCOC(=O)C1CCCN(C(=O)CCCn2c(=O)c3cccn3c3cccnc32)C1 (centres unmarked) | 10.8%
61 | Cc1cc(=O)oc2cc(OCCc3ccccc3)ccc12 | 3%
62 | CCCNC(=O)COC(=O)/C=C/c1ccc2c(c1)OCO2 | 14.1%
63 | COc1ccc2c(c1)[nH]c1c(N3CCN(Cc4ccc5c(c4)OCO5)CC3)ncnc12 | -8.29%
64 | O=C(Nc1ccc(S(=O)(=O)N2CCOCC2)cc1)c1ccc(Cl)s1 | 4.62%
65 | COc1ccc(NC(=O)N2CCC(C(=O)c3ccc(F)cc3)CC2)cc1 | 5.17%
66 | Cc1ccc(S(=O)(=O)N(C)C)cc1NC(=O)CSc1nncs1 | 5.7%
67 | O=C(/C=C\c1cn(-c2ccccc2)nc1-c1ccccc1)Nc1nccs1 | 17.5%
68 | COc1cc(OC)cc(C(=O)N2CCC3(CC2)NCCc2[nH]cnc23)c1 | 16.3%
69 | S=C1NC2=C(CCC/C2=C\c2ccc(Cl)cc2)C(c2ccc(Cl)cc2)N1 (centres unmarked) | 8.98%

Row | SMILES | hERG current change (%, negative = inhibition) at 1uM
70 | OC1COC(OCC2OC(OCc3ccccc3)C(O)C(O)C2O)C(O)C1O (centres unmarked) | -10.9%
71 | CC(=O)Nc1ccc(C(=O)NNC(=O)c2ccc(Cl)cc2Cl)cc1 | 15.3%
72 | Oc1ccccc1C(=S)N1CCCC1 | 12%
73 | Cc1cccc(C(=O)NCCCNC(=O)c2cccc(C)c2)c1 | 7.74%
74 | Cc1ccc(S(=O)(=O)NC2(C(F)(F)F)NC(=O)N(C)C2=O)cc1 (centres unmarked) | 12.3%
75 | OCC1(CCOc2ccccc2)CCN(Cc2cccn2-c2ncccn2)CC1 | -82.4%
76 | CC1CCN(C(=O)Cn2nnnc2CN2CCOCC2)CC1 | -2.88%
77 | COc1ccc(Nc2nc(-c3ccccc3)nc3ccccc23)cc1S(=O)(=O)N1CCOCC1 | 2.46%
78 | O=C(Nc1cccc(Cl)c1Cl)c1cc(S(=O)(=O)NCCc2ccccc2)ccc1F | 7.02%
79 | Cc1cccc(CSc2ncnc3ccccc23)c1 | 11.9%
80 | CC1CCN(S(=O)(=O)c2ccc(C(=O)OC(C)C(=O)NC3CCCCC3C)cc2)CC1 (centres unmarked) | 4.2%
81 | CCOC(=O)Cn1nc(-c2ccccc2)c2cnc3ccc(CC)cc3c21 | 14.3%
82 | COc1ccc(-c2ccc(NC(=O)c3ccc(Br)o3)cc2)nn1 | 5.87%
83 | CCOc1ccccc1NS(=O)(=O)c1ccc(Br)s1 | 5.39%
84 | COc1ccc(Cl)cc1S(=O)(=O)N1CCC(C(=O)N2CCOCC2)CC1 | 6.86%
85 | CC(C)[C@H](NC(=O)OCc1ccccc1)C(=O)OCC(=O)NC1CCCCC1 | 8.14%
86 | CCOc1ccc(NC2OC(CO)C(O)C(O)C2O)c([N+](=O)[O-])c1 (centres unmarked) | 12.1%
87 | CCC(C)(C)NC(=O)Cc1ccc(Cl)cc1 | 1.1%
88 | COc1cc(C(=O)OCCNC(=O)c2ccccc2)cc(OC)c1OC | 5.6%
89 | CCCc1noc(-c2ccc(-c3ccccc3)cc2)n1 | 3.45%
